Several values for one entry are separate records, joined by “and”; a condition that tells them apart may be missing. Identical values can stand only once. The whole screen tested about 420,000 compounds, of which about 50,000 (12%) were called active. Inconclusive means that the source gave no clear call. Such entries were picked first, then a sample of the others. The call rests on the fitted dose curve; in most records, active means well fitted inhibition curve with a large enough effect; inconclusive means small, poorly fitted or top-dose-only effect; inactive means flat fitted curve, though single readings scatter. Potencies beside an inconclusive call are fits to weak or partial responses and may not hold up. A structure can be active in one record and inactive in another.
Test: qHTS for Inhibitors of human tyrosyl-DNA phosphodiesterase 1 (TDP1): qHTS in cells in presence of CPT; further: nearly all actives have a fitted effect of over 55% in size
Conditions: chicken DT40 Tdp1-/-;hTDP1 cells + 20 nM CPT, ATP luminescence, 48 h; activity change, negative = growth inhibition: at 46.2 µM (top of the series) unless noted
Method in brief: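 Cell growth measured by CellTiter-Glo luminescence after a minimum 48 h, 37 C compound exposure with 20 nM CPT in Tdp1-knockout DT40 cells stably expressing hTDP1, seeded 400/well; qHTS titration format.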
On the % scale 0 is the no-effect control and ±100 the full control effect; potency means the concentration at half of the fitted maximal effect; tags describe the fitted curve by direction and shape.

Row | Compound | Potency | activity change, negative = growth inhibition
1 | CC(C)C(NC(=O)CCNC(=O)c1ccc([N+](=O)[O-])cc1)c1nc2ccccc2[nH]1 (stereo not drawn) | inactive | 
2 | O=C(CN1CCN(S(=O)(=O)c2ccc(F)cc2)CC1)Nc1ccc(Cl)c(C(F)(F)F)c1 | active: 18.4 µM | 
3 | COc1cccc(CN(CC(=O)NCc2ccccc2)S(=O)(=O)CCl)c1 | inconclusive: 22.4 µM [inhibitor, single point] and inconclusive: 25.9 µM [inhibitor, single point] | 
4 | O=C(NCC1(N2CCOCC2)CCCCC1)c1cnn(-c2nccc(-c3cccs3)n2)c1C1CC1 | inconclusive: 18.4 µM [inhibitor, single point] | 
5 | CCCCCCCCN1C(=O)[C@H](CC(=O)NCc2ccc(OC)c(OC)c2)C[C@@]2(C(=O)OCC)CCC=C12 | inconclusive: 20.6 µM [inhibitor, single point] | 
6 | Cc1cc(Br)c(NC(=O)CN2C(=O)NC3(CCOc4ccccc43)C2=O)c(Br)c1 (stereo not drawn) | inconclusive: 32.6 µM [inhibitor, single point] | 
7 | COC(=O)c1cn(C(=O)c2ccc(OC)cc2)c2ccccc12 | active: 8.2 µM | 
8 | Cc1cc(C)c(CN2C(=O)c3ccccc3S(=O)(=O)c3ccc(C(=O)OCC4CCCO4)cc32)c(C)c1 (stereo not drawn) | inconclusive: 18.4 µM [inhibitor, single point] | 
9 | COc1ccc(-c2cn[nH]c2N)cc1OC | inactive | 
10 | CCS(=O)(=O)c1ncc(Cl)c(C(=O)N(Cc2ccccc2)c2ccc(OC)cc2)n1 | active: 1.03 µM | 
11 | Cc1c(O)nc(SC2CC(=O)N(c3ccccc3)C2=O)[nH]c1=O (stereo not drawn) | inactive | 
12 | Cc1ccc(CNC(=O)c2c(-c3ccccc3)sc3ccccc23)o1 | inconclusive: 20.6 µM [inhibitor, single point] | 
13 | COc1cc(OC)cc(-c2c(-c3cccs3)c3cc(-c4ccc5cc[nH]c5c4)ccc3n2C)c1 | inconclusive: 29.1 µM [inhibitor, single point] | 
14 | O=C(O)[C@@H]1[C@@H]2C[C@@H]2CN1c1ncccc1[N+](=O)[O-] | inactive | 
15 | CN(C)C(=O)c1cccn1-c1ncc(C(F)(F)F)cc1Cl | inactive | 
16 | COCCCN1CN(Cc2ccccc2)CNC1=S | inconclusive: 0.0206 µM [inhibitor, full curve, poor fit] | 
17 | C=CCCCCCCCC(=O)OC | inactive | 
18 | COc1ccc(CCNC(=O)c2noc(C)c2[N+](=O)[O-])cc1OC | inactive | 
19 | O=c1cc(SCc2ccc(Cl)cc2Cl)nc[nH]1 | inactive | 
20 | Cc1cc(C)c2nc(SCC(=O)N(C)C3CCS(=O)(=O)C3)cc(C)c2c1 (stereo not drawn) | active: 23.1 µM | 
21 | CCCN(Cc1cccs1)C(=O)Nc1ccc(F)c(Cl)c1 | inconclusive: 23.1 µM [inhibitor, single point] | 
22 | COc1ccc(N2CCN(S(=O)(=O)CCNC(=O)/C=C/c3ccc4c(c3)OCO4)CC2)cc1 | inactive | 
23 | Cc1ccc(C(=O)OCC(=O)Nc2ccccc2Cl)c(O)c1 | inconclusive: 18.4 µM [inhibitor, single point] | 

Row | Compound | Potency | activity change, negative = growth inhibition
24 | Cc1ccc(CN2C(=O)C(CC(C)C)Nc3ncnc(N4CCCCC4)c32)cc1 (stereo not drawn) | inconclusive: 25.9 µM [inhibitor, single point] | 
25 | FC(F)(F)c1nnc2c(Sc3ccccc3)nc3ccc(Cl)cc3n12 | active: 0.651 µM | 
26 | COc1cccc(Nc2sc(C(=O)c3ccc(Cl)cc3)c(N)c2C(=O)NCCc2ccc(OC)c(OC)c2)c1 | inconclusive: 11.6 µM [inhibitor, single point] | 
27 | O=C(N/N=C/c1cccc2nccnc12)c1ccncc1 | inconclusive: 29.1 µM [inhibitor, single point] | 
28 | NC(=O)c1cc(Br)cc2c3c([nH]c12)CCCC3 | active: 18.4 µM | 
29 | CCOC(=O)Cc1ccc(Nc2nc3cc(-c4ccccc4C)sc3c(=O)n2C)cc1 | inconclusive: 29.1 µM [inhibitor, single point] | 
30 | COc1ccc(-c2[nH]c(-c3ccc4c(c3)OCO4)nc2-c2ccccc2)cc1 | inconclusive: 16.4 µM [inhibitor, single point] | 
31 | COc1ccc(CN2CCN(C(=O)c3ccc(S(=O)(=O)NCc4ccco4)cc3)CC2)cc1F | active: 9.2 µM | 
32 | N#C/C(=C\c1ccccc1)C(=O)NCc1ccc(F)cc1 | inconclusive: 25.9 µM [inhibitor, partial curve, poor fit] | 
33 | CS(=O)(=O)N1CCc2cc(C(=O)Nc3ccc(S(N)(=O)=O)cc3)ccc21 | inactive | 
34 | Cc1ccc(C)c(NC(=O)Cn2c(=O)n(Cc3ccc4c(c3)OCO4)c(=O)c3ccccc32)c1 |  | inconclusive: -31.8% [inhibitor]
35 | COC(=O)C(Cc1ccccc1)NS(=O)(=O)c1ccccc1Br (stereo not drawn) | inactive | 
36 | COc1ccc2c(c1)OC[C@H]1[C@H]2N2C(=O)c3cc(Cl)ccc3NC(=O)[C@@]2(C)[C@H]1c1ccccc1 | inconclusive: 29.1 µM [inhibitor, single point] | 
37 | c1ccc(NC2=NCCN2CC2CCCCCC2)cc1 | inconclusive: 29.1 µM [inhibitor, single point] | 
38 | O=c1[nH]c(/C=C/c2cccc3ccccc23)nc2ccccc12 | inconclusive: 29.1 µM [inhibitor, single point] | 
39 | CC(=O)c1ccc2c(c1)N(CCCN1CCC(CCO)CC1)c1ccccc1S2 | inactive and active: 11.4 µM | 
40 | COc1ccc2c(C)cc(SCC(=O)Nc3cc(C(N)=O)cc(C(N)=O)c3)nc2c1 | inconclusive: 16.4 µM [inhibitor, partial curve, poor fit] | 
41 | C=CCN1C(=O)/C(=C2/Sc3ccc(OC)cc3N2C)SC1=Nc1ccccc1 | active: 8.2 µM | 
42 | O=C(COC(=O)C1CCN(/C=C/C(=O)C(F)(F)F)CC1)Nc1cccc(F)c1 | inactive | 
43 | CC(C)(C)OC(=O)N1CCC(c2c(C(=O)N3CCCCC3)cnn2-c2ccc(F)cc2F)CC1 | inconclusive: 29.1 µM [inhibitor, single point] | 
44 | CCCn1c(NC(=O)C23CC4CC(CC(O)(C4)C2)C3)nc2ccccc21 | inconclusive: 29.1 µM [inhibitor, single point] | 
45 | O=C(C[C@@H]1C/C=C\CC[C@@H](Cc2ccc(F)cc2)C(=O)OC[C@@H](Cc2ccccc2)NC1=O)NCCO | active: 14.6 µM | 
46 | Cc1ccc(-n2ncc(C(=O)NCCCN3CCN(C)CC3)c2C2CCN(C(=O)OC(C)(C)C)CC2)c(C)c1 | inconclusive: 9.2 µM [inhibitor, single point] | 

Row | Compound | Potency | activity change, negative = growth inhibition
47 | COc1ccc(CN2CCC(=O)N([C@H](CO)Cc3ccccc3)CC2)cc1 | inactive | 
48 | Cc1cc(/C=N/NC(=O)CC2(C)OCCO2)c(C)n1-c1cc(Cl)cc(Cl)c1 | inconclusive: 23.1 µM [inhibitor, single point] | 
49 | CCCCOC(=O)c1cc(C)nc2ccc(Br)cc12 | inconclusive: 14.6 µM [inhibitor, partial curve, poor fit] | 
50 | CCOC(=O)c1c(NC2=NS(=O)(=O)c3ccccc32)sc2c1CCC(C)C2 (stereo not drawn) | inconclusive: 16.4 µM [inhibitor, single point] | 
51 | O=C(NCc1ccncc1)Nc1ccccc1F | inactive | 
52 | O=C(NCc1ccccc1)C(c1ccc(-c2ccccc2)cc1)n1c(=O)c(-c2ccco2)nc2ccccc21 (stereo not drawn) | inconclusive: 23.1 µM [inhibitor, single point] | 
53 | O=C(CCn1cnc2onc(-c3ccc(F)cc3)c2c1=O)N1CCN(c2ccccc2F)CC1 | inconclusive: 29.1 µM [inhibitor, single point] | 
54 | COc1ccc(OC)c(/C=C/c2ccc3ccccc3n2)c1 | inconclusive: 20 µM [inhibitor, single point] | 
55 | COc1cccc(NC(=O)CN(C)C(=O)c2ccc(-c3cccc(C(F)(F)F)c3)o2)c1 | inconclusive: 29.1 µM [inhibitor, single point] | 
56 | CC(C)c1ccc(N(CC(=O)NCCSC(C)(C)C)S(C)(=O)=O)cc1 | inconclusive: 10.3 µM [inhibitor, partial curve] | 
57 | C/C(=N\Nc1nc2c(s1)CCCC2)c1ccc(Cl)cc1 | active: 13 µM | 
58 | COc1ccc(S(=O)(=O)N2CCc3ccccc32)cc1C(=O)Nc1ccc(NC(C)=O)cc1 | inconclusive: 25.9 µM [inhibitor, single point] | 
59 | C=CCn1c(=NC(=O)c2cccc(N3C(=O)CCC3=O)c2)sc2cccc(OC)c21 | active: 23.1 µM | 
60 | CCOC(=O)C1CCCN(C(=O)c2ccc(NC(=O)c3nsc4ccccc34)cc2)C1 (stereo not drawn) | inconclusive: 20.6 µM [inhibitor, single point] | 
61 | O=C1CN(C(=O)COC(=O)c2oc3ccccc3c2COc2ccccc2)c2ccccc2N1 | inconclusive: 29.1 µM [inhibitor, single point] | 
62 | O=C(/C=C/c1ccccc1)Oc1cccc(C(=S)N2CCOCC2)c1 | inactive | 
63 | Cc1ccccc1Nc1c(-c2ccccn2)nc2ccccn12 | active: 9.2 µM | 
64 | Cc1ccc2c(CC(=O)N(Cc3cccc(Cl)c3)C3CCS(=O)(=O)C3)coc2c1 (stereo not drawn) | inconclusive: 29.1 µM [inhibitor, single point] | 
65 | Cc1ccnc(NC(=O)c2cccc(NC(=O)COc3ccccc3)c2)c1 | inconclusive: 25.9 µM [inhibitor, single point] | 
66 | CCn1c(=N)n(CC(=O)c2ccco2)c2ccccc21 | active: 13 µM | 
67 | COc1ccc(Cl)cc1NC(=O)Cn1cnc2sc(C)c(S(=O)(=O)N3CCN(c4ccccc4OC)CC3)c2c1=O | active: 7.31 µM | 
68 | Cc1ccc(OCC(=O)Nc2ccc3c(c2)nc(CCN2CCN(c4ccccn4)CC2)n3C)cc1 | active: 23.1 µM | 

— PubChem BioAssay AID686979 (National Center for Advancing Translational Sciences (NCATS), 2013)
